Hit rate of the full screen: of about 150,000 compounds, about 540 (0.36%) showed an effect of 50% or more. Some of the results follow.

The experiment has as its system Plasmodium falciparum. The experiment in a line: Primary screen in NF54 nanoGlo assay, in single point, at 2uM, 72h; a lower Z score goes with more inhibition. The format is functional, Erythrocyte. The following applies: timepoint 72 hour.
Take `C[C@H](NC(N)=O)C(=O)N(CCc1cccc(F)c1)C1CC1`: the % Inhibition (usually the drop in the measured response relative to a control, in per cent) stood at 5% and the Z score is -0.9.
On the same counts, the results for `CCCn1nnnc1CN1C(=O)N[C@@](CC)(C(C)C)C1=O` are 13% and -1.64.
The like results for `CC[C@]1(O)CCN(C(=O)c2ccccc2OC(F)(F)C(F)F)C[C@@H]1O` were, in that order, -14% and 1.31.
As for `Cc1noc(C(=O)NCc2ccccn2)c1Cl`, the “% Inhibition” value was found to be 2% and the Z score is given as -0.3.
With `CN1CCC(N2CCOc3c(O)cc(-c4ccc(Cl)cn4)cc3C2)CC1`, the “% Inhibition” value is -7% and the Z score was determined as 1.33.
On the same counts, the results for `O=C(CC[C@H]1CCCO1)Nc1ccccn1` are -8% and 0.86.
The like results for `COc1ccc([C@H]2CC(=O)Nc3cccc4c3c2cn4Cc2cccc(F)c2)cc1OCCc1ccc2c(c1)CCO2` were, in that order, -3% and 0.37.
On the same counts, the results for `COc1ccc(S(=O)(=O)N[C@H]2CCN(c3ccc(F)c(C)c3)C2=O)cc1` are 6% and -0.91.
In the case of `O=C1N(C2CCCCC2)C[C@H]2CN(S(=O)(=O)c3ccccc3)CCN12`, the “% Inhibition” value is -15% and the Z score was 1.93.
`CO[C@H]1CC[C@@]2(OC)CCN(C(=O)c3cc(C(C)C)nn3C)[C@H]2C1`: the “% Inhibition” value is on record as -31% and the Z score came out at 2.69.
On the same counts, the results for `N#Cc1ccc(-n2nccc2NC(=O)C(CC2COCCO2)C(F)(F)F)cc1` (stereo not given) are -16% and 1.96.
On the same counts, the results for `Cc1nc(-c2ncnn2C2CCCCC2)cs1` are -12% and 1.86.
On the same counts, the results for `CCc1oc(C(=O)N[C@@H](C)c2ncon2)cc1C` are 10% and -0.93.
Regarding `Cc1ccn(CC(=O)N2CCN(Cc3cccnc3)C[C@@H]2C)c(=O)c1`, the “% Inhibition” value is on record as -4% and the Z score came to 0.46.
As to `Cc1noc(C)c1CC(=O)Nc1ccnn1C1CCCC1`, the “% Inhibition” value was -9% and the Z score is listed as 1.65.
The like results for `Cc1ccc2nc(C(=O)N(C)Cc3nc(C)c[nH]3)c(F)n2c1` were, in that order, -11% and 1.83.
The like results for `O=c1nc2n(c3cc(Cl)c(S(=O)(=O)N4CCOCC4)cc13)CCCCC2` were, in that order, -5% and 0.58.
On the same counts, the results for `Cn1c(Cn2ncn3cccc3c2=O)nc2ccccc21` are -5% and 0.71.
Regarding `COCCC(=O)Nc1ccncc1C(=O)C(C)C`, the “% Inhibition” value was -7% and the Z score was found to be 1.01.
On the same counts, the results for `CCC[C@]1(CO)CCCN(C(=O)c2cccc(-c3cccs3)c2)C1` are -2% and 0.32.
On the same counts, the results for `O=C(N[C@@H](CCO)C1CCOCC1)c1ccoc1Cl` are 16% and -2.01.
On the same counts, the results for `Cc1cc(C(=O)NC[C@@]23CCC[C@H]2N(CC2CCCCC2)C(=O)CC3)nn1C` are -22% and 2.96.
Consider `CC[C@H]1c2cccn2CCN1C(=O)c1ncc(Cc2ccccc2)o1`, for which the “% Inhibition” value was -16% and the Z score is recorded as 2.17.
The like results for `CCCNC(=O)C(C)NC(=O)C(C)Oc1ccc(Cl)cc1` (stereo not given) were, in that order, -9% and 1.73.
The like results for `Cc1noc(C)c1C[C@H](C)C(=O)NS(=O)(=O)CC1CCOCC1` were, in that order, -7% and 0.87.
On the same counts, the results for `Cc1c(CNc2cc(F)ccc2N2CCCCC2)cnn1C` are 4% and -0.31.
Consider `Cc1ccc(CN2CC[C@H](CNC(=O)NC(C)C)C2)cc1C`, for which the “% Inhibition” value is -8% and the Z score turned out to be 1.55.
Take `Cc1ccc(S(=O)(=O)Nc2ccc(C)n(CC(=O)N3CCC(C)CC3)c2=O)cc1`: the “% Inhibition” value was -10% and the Z score came out at 1.35.
The like results for `CCc1nnc(C(C)NC2CCCCC2C)o1` (stereo not given) were, in that order, -6% and 0.73.
On the same counts, the results for `CC(C)(CCCO)CNS(=O)(=O)c1c(F)cc(F)cc1C#N` are -4% and 0.76.
The like results for `CN(CC1(O)CCCC1)C(=O)c1cnns1` were, in that order, -1% and 0.12.
As for `CC1=C(C(=O)NCCC(=O)Nc2nccs2)[C@H](C)NC(=O)N1`, the “% Inhibition” value is -9% and the Z score stood at 0.84.
For the molecule `CC(C)c1ccc(C(=O)NCC(=O)C(C)(C)C)cn1`, the “% Inhibition” value is -18% and the Z score was found to be 2.58.
On the same counts, the results for `Cc1cccc(Cc2sc(NC(=O)Cn3cn[nH]c3=O)nc2C)c1` are -2% and 0.34.
With `CN(c1ccc(Br)cc1)S(=O)(=O)c1ccc2c(c1)CCN2C(=O)C1CCC1`, the “% Inhibition” value is given as 34% and the Z score is -4.56.
On to `CCOC1CC(c2nc(-c3ccsc3)no2)C1` (stereo not given), for which the “% Inhibition” value is listed as -9% and the Z score worked out at 1.29.
On the same counts, the results for `Nc1ncccc1CNC(=O)c1nc(C2CC2)ncc1Br` are 4% and -0.57.
As for `CCCc1nnc(N2CCC[C@]3(CCCN(C)C3)C2)o1`, the “% Inhibition” value was -14% and the Z score is on record as 1.48.
The like results for `CC(=O)N1CCN(C2CN(C(C)c3nc(C4CC4)no3)CC2C)CC1` (stereo not given) were, in that order, -14% and 1.24.
The like results for `CN1CCCN(C(=O)c2ccnc(OCC3CC3)c2)CC1` were, in that order, -10% and 1.83.
On the same counts, the results for `Cc1oncc1C(=O)NCc1cc(-c2cccnc2)nn1C` are -5% and 0.87.
With `CC(C)=CCO[C@H]1CCOC[C@H]1NC(=O)c1c[nH]c2cc(C)nn2c1=O`, the “% Inhibition” value is on record as -7% and the Z score was 1.28.
On the same counts, the results for `CC(C)[C@H](Nc1ncnc2ccccc12)C(=O)NCc1ccccn1` are 7% and -0.86.
Take `O=C(Nc1ccc2c(c1)CCC2)c1coc(CN2CCN(C[C@H](O)c3ccccc3)CC2)n1`: the “% Inhibition” value is listed as -4% and the Z score is reported as 0.67.
As for `CCc1ccc(CN2CCc3c(C(=O)NCC4CCNCC4)csc3C2)nc1`, the “% Inhibition” value is given as -5% and the Z score is reported as 0.68.
On the same counts, the results for `O[C@H]1C[C@@H](c2cc(N3CCCC4(CCOCC4)C3)ncn2)C1` are -2% and 0.2.
The like results for `Cc1ncnc(NCc2csc(N3CCOCC3)n2)c1C` were, in that order, 0% and 0.07.
On the same counts, the results for `C[C@@H]1CN(CCCNC(=O)c2cccc(-c3cccc(C#N)n3)c2)C[C@H](C)O1` are -11% and 1.51.
As for `CCCOc1c(Cl)cc(CNc2ccnc(C(=O)N3CCC(O)CC3)c2)cc1OCC`, the “% Inhibition” value is -8% and the Z score is recorded as 1.19.
The like results for `CC(C)(C)NC(=O)NC(=O)CNC(C)(C)COc1ncccc1Br` were, in that order, -1% and 0.16.
The like results for `CC(C)c1ccc(N2C(=O)CN(CCC3=CCCCC3)[C@H]3CS(=O)(=O)C[C@H]32)cc1` were, in that order, -10% and 1.35.
In the case of `O=C(Nc1ccc2c(c1)OC1(CCCCC1)O2)[C@@H]1CCCO1`, the “% Inhibition” value was -11% and the Z score is listed as 1.07.
The like results for `COc1ccc(F)c(NCc2noc([C@@H]3COc4ccccc4O3)n2)c1` were, in that order, -3% and 0.53.
Turning to `COC(=O)C1(NCc2nc(N(C)C)no2)CCCCCC1`, the “% Inhibition” value was -12% and the Z score came to 1.67.
The like results for `CS(=O)(=O)N1CCC[C@@H]1CNc1ccc(Br)cn1` were, in that order, -16% and 1.96.
Take `OCC[C@H]1CN(Cc2cc(C3CC3)on2)CCN1CC1CC1`: the “% Inhibition” value was -3% and the Z score came out at 0.49.
On the same counts, the results for `CC(C)CS(=O)(=O)C1CN(S(=O)(=O)Cc2cccc(F)c2)C1` are -20% and 2.53.
On the same counts, the results for `Cc1ncc(-c2cc(C(=O)N3CCc4ccccc4C3)c3ccccc3n2)cn1` are -10% and 1.55.
The like results for `Cn1cc(S(=O)(=O)N2CCC(C(=O)NCc3ccccc3)CC2)c(=O)n(C)c1=O` were, in that order, 4% and -0.43.
With `Cc1cc(-n2c(C)cc(CNCC3(N4CCOCC4)CCCCC3)c2C)no1`, the “% Inhibition” value stood at 1% and the Z score is -0.31.
On the same counts, the results for `COc1cc([C@H](C)Nc2cc(C)ncn2)ccc1F` are -5% and 0.84.
On the same counts, the results for `CCOc1ncccc1C(=O)N1CCC[C@H]1c1nc2ccccc2s1` are -5% and 0.65.
The like results for `CN(Cc1cc(C2CC2)n[nH]1)CC1(CO)CCC1` were, in that order, 5% and -0.84.
For `O=C1[C@@H]2C(c3ccc(F)cc3)=NO[C@@H]2C(=O)N1c1ccc(Cl)cc1Cl`, the “% Inhibition” value is given as -5% and the Z score is on record as 0.88.
The like results for `CN1CCN([C@H]2CCN(c3nccnc3C#N)C2)CC1` were, in that order, -4% and 0.36.
Turning to `CC(C)c1nsc(N[C@@H](C)c2cnccn2)n1`, the “% Inhibition” value was determined as 2% and the Z score is recorded as -0.29.
On the same counts, the results for `Cc1nc(N2CCN(C(=O)c3cc4n(n3)CCCO4)CC2)cc(C(F)(F)F)n1` are -9% and 1.16.
The like results for `C[C@@H]1CN(C(=O)c2ccc3nc(-c4ccc(F)cc4)cn3c2)C[C@H](C)O1` were, in that order, -11% and 1.14.
The like results for `COC1(c2nc(Cc3cccnc3)no2)CCOCC1` were, in that order, -3% and 0.52.
In the case of `CC(=O)Nc1nc(CS(=O)(=O)Cc2cc(C)no2)cs1`, the “% Inhibition” value is given as -5% and the Z score was 0.93.
On the same counts, the results for `CCN1CCN(C[C@@H](C)CNC(=O)c2cc(C)nc3c2c(=O)[nH]n3C)CC1` are -5% and 0.96.
The like results for `O=C1C[C@H](Cn2ncc3ncccc32)CN1` were, in that order, -14% and 1.44.
The like results for `CCn1cnnc1C[C@H]1CCN(C(=O)c2ccc3ccccc3n2)C1` were, in that order, -15% and 2.64.
Take `CC1(C(=O)Nc2n[nH]c3cc(F)ccc23)CC2CCC1O2` (stereo not given): the “% Inhibition” value was -7% and the Z score came out at 1.08.
On the same counts, the results for `Cn1ccnc(N2CCC(=C3CC3)CC2)c1=O` are 0% and 0.05.
The like results for `CC(C)C(CO)NC(=O)C1CC(=O)N(Cc2ccc3c(c2)OCO3)C1` (stereo not given) were, in that order, 0% and 0.
The like results for `CN1CC[C@H](NC(=O)Nc2ccc(N3CCOCC3)nc2)C1` were, in that order, -13% and 2.43.
As for `CC1CCCN(C(=O)c2ccc(C3(C)NC(=O)NC3=O)cc2)C1` (stereo not given), the “% Inhibition” value came out at 30% and the Z score was -3.35.
The like results for `Fc1ccc(-c2nc(-c3ccc4nncn4c3)no2)cc1F` were, in that order, -16% and 2.78.
For the molecule `COc1ccc(C(=O)Nc2ccc(-c3c(C4CC4)nn(-c4cccc(F)c4)c3OC(C)=O)cc2)cc1`, the “% Inhibition” value is recorded as -13% and the Z score is recorded as 1.42.
Regarding `CC(C)n1ncc(C(=O)NC23CCN(CC2)C3)c1Br`, the “% Inhibition” value was -11% and the Z score was determined as 1.15.
On the same counts, the results for `CC(=O)N[C@@H]1C[C@H](CC(C)C)O[C@H](c2c[nH]nc2C2CCCCC2)C1` are -12% and 1.14.
For `Cc1cc(NC(=O)CC[C@H]2CCCO2)n(C)n1`, the “% Inhibition” value came out at 0% and the Z score is reported as -0.05.
For the molecule `CC1CNCCN1C(=O)CCC1NC(=O)N(c2ccc(Cl)c(Cl)c2)C1=O` (stereo not given), the “% Inhibition” value is -7% and the Z score turned out to be 1.4.
As for `COc1ccc([C@@H]2CCCN2C(=O)c2ccn(C)c(=O)c2)cc1OC`, the “% Inhibition” value is reported as -2% and the Z score amounted to 0.43.

Source of the values: ChEMBL document CHEMBL4888484, “Replenishing the malaria drug discovery pipeline: Screening and hit evaluation of the MMV Hit Generation Library 1 (HGL1) against asexual blood stage Plasmodium falciparum ,using a nano luciferase reporter read-out” (2022).
